Measured values published in PubChem BioAssay AID1508624 (National Center for Advancing Translational Sciences (NCATS), 2021).
In all, about 48,000 compounds went through this assay and about 120 (0.25%) were called active. Roughly 4% stayed inconclusive and do not appear here. Calls come from the whole dose curve; as a rule, active = well fitted activation curve with a large enough effect; inconclusive = small, poorly fitted or top-dose-only effect, or another doubt; inactive = no such curve, though single readings can be large or run the other way. The list shows a part of the results.

experiment: Primary qHTS for Identification of Small Molecule Activators of Huntingtin-Antisense Promoter Activity; conditions: HEK293 HTT-AS promoter firefly luciferase reporter (activity 0% = vehicle and -100% = no light), 24 h; series mostly up to 57.5 µM; activity change, positive = activation: at the top concentration; note: nearly all actives have a fitted effect of over 55% in size
Procedure, shortened: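 Firefly luciferase signal from promoter-reporter HEK293 cells was scaled between vehicle (0%) and zero RLU (-100%). Compounds were tested at final concentrations of up to 57.5 uM over 24 h at 37 degrees C. PTC124 at 50 uM final served as control inhibitor.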

Activity change, positive = activation, inactive:
O=C(Cn1c(=O)n(-c2ccccc2Cl)c(=O)c2sc3ccccc3c21)NC1CCCC1 -14.1%
COc1ccccc1CNC(=O)CSc1cc(C)[nH]c(=O)n1 -9.41%
O=C(O)CCC(=O)c1ccc(-c2ccccc2)cc1 17.3%
COc1ccc(-c2c(C)nn3c(N4CCN(c5cc(Cl)ccc5C)CC4)cc(C)nc23)cc1OC -2.21%
Cc1ccc(S(=O)(=O)C(CNS(=O)(=O)c2ccc(F)c(C)c2)c2cccs2)cc1 (stereo unspecified) -31.2%
O=C(NCCS(=O)(=O)N1CCN(c2ccccc2F)CC1)C1CC(=O)N(c2ccc(F)cc2)C1 (stereo unspecified) -9.74%
CCc1ccccc1N(CC)C(=O)Cn1nc(Cc2ccncc2)c2ccccc2c1=O -35.8%
Cc1ccc(-n2cnc3cc(C(=O)NCCC4=CCCCC4)ccc32)cc1Cl -9.78%
Cc1ccc(OCC(=O)Nc2cccc3ccc(C)nc23)c(C)c1 13.9%
Cc1cccc(NC(=O)COc2ccc3oc4c(c3c2)CCCC4)c1 -20.5%
COc1ccc(CNC(=O)C(=O)NCC(c2cccs2)S(=O)(=O)c2cccs2)cc1 (stereo unspecified) -33%
O=C(CCc1nc(-c2cccs2)no1)Nc1ccc([N+](=O)[O-])cc1 -15%
CCc1cccc(C)c1NC(=O)Cn1ncc2c3ccccc3n(Cc3ccccc3)c2c1=O -3.3%
Cc1ccc(Cl)cc1Nc1nn2c(=O)c3ccc(C(=O)NC4CCCCC4)cc3nc2s1 -4.96%
COc1ccc(OC)c(NC(=O)CS(=O)(=O)Cc2nc(-c3ccc(C)cc3)oc2C)c1 -6.58%
CCCSc1ncnc2c1c(-c1ccccc1)cn2-c1ccccc1OC -15.4%
CCOc1ccc2c(c1)c(=O)c(S(=O)(=O)c1ccc(CC)cc1)cn2Cc1cccc(Cl)c1 0%
CN1CCN2c3ccccc3Cc3ccccc3C2C1 (stereo unspecified)
COc1ccc(CNC(=O)c2ccc(CS(=O)(=O)c3ccc(Br)cc3)o2)cc1 -24.1%
CCCCOC(=O)c1ccc(Nc2nc3ccc(C(=O)c4ccccc4)cc3n3cnnc23)cc1 4.19%
CCOc1ccc(OCC)c(NC(=O)c2cc(-c3cccs3)nc3ccccc23)c1 0.4%
O=c1c2sccc2n(Cc2cc(=O)n3cc(Cl)ccc3n2)c(=O)n1-c1ccccc1 -15.4%
O=c1c(N2CCN(c3cccc(Cl)c3)CC2)csc2ccc(Cl)cc12 2.42%
CCCCCCCCOc1ccccc1C(=O)Nc1ccc(C(=O)OCC[N+](C)(CC)CC)cc1
COCCCNC(=O)C1CCN(c2nc3ccc(Cl)cc3[nH]2)CC1 5.5%
CC1=C(c2ccc(C(C)C)cc2)S(=O)(=O)NC1=NCc1ccc(Cl)cc1 -9.78%
Cc1ccc(CNC(=O)CCCc2nnc3n(CC(C)C)c(=O)c4sccc4n23)cc1 -5.72%
CCOC(=O)c1ccccc1NC(=O)c1nn(-c2ccc(OC)c(Cl)c2)c(=O)c2c1c1ccccc1n2C -3.59%
CCc1ccc2occ(CC(=O)Nc3ccc(C)c(C)c3)c2c1 -36.3%
Cc1sc2ncn(CC(=O)N3CCN(c4ccccc4)CC3)c(=O)c2c1S(=O)(=O)N1CCC(C)CC1 -16.6%
O=c1c2nncn2ccn1-c1ccc(F)c(F)c1 -7.48%
O=C(c1cc2cc3ccc(Cl)cc3nc2o1)N1CCN(c2cccc(Cl)c2)CC1 -0.301%
O=C(CN1C(=O)CSc2ccc(S(=O)(=O)N3CCCC3)cc21)NCc1ccc(F)cc1Cl -21.6%
Cc1cccc(NC(=O)N2CC=C(c3c[nH]c4ccccc34)CC2)c1C -11.7%
CCN(CC)C(=O)C1CCCN(c2ncnc3c2c(-c2ccccc2)cn3-c2cccc(C)c2)C1 (stereo unspecified) -33.4%
Cc1nc(-c2ccc(C)c(S(=O)(=O)N3CCC(C(=O)NCc4ccc(F)cc4)CC3)c2)no1 -38.3%
CCCCc1ncc(/C=C(\Cc2cccs2)C(=O)O)n1Cc1ccc(C(=O)O)cc1 -1.24%
O=S(=O)(c1ccc2nc(Nc3ccc(F)cc3)ccc2c1)N1CCCC1 -5.65%
Cc1ccc(C)c(CNC(=O)CN2C(=O)CSc3ccc(S(=O)(=O)N(C)C)cc32)c1 0.365%
O=C1NC2CCCCN2C12CCN(CCCN1c3ccccc3CCc3ccc(Cl)cc31)CC2 (stereo unspecified) -21.7%
COc1ccc(S(=O)(=O)N(CCc2ccccc2)CC(=O)Nc2cc(C)cc(C)c2)cc1OC -22.2%
COc1ccccc1N1CCN(S(=O)(=O)CCNC(=O)C(c2ccccc2)c2ccccc2)CC1 -34.3%
N[C@@H](Cc1ccc(O)c(O)c1)C(=O)O -1.6%
CCc1ccc(NC(=O)Cn2c(=O)n(CCc3ccccc3)c(=O)c3sc4ccccc4c32)cc1 -7.11%
CC(=O)c1cccc(N2C(=O)CN(S(C)(=O)=O)CC2(C)C(=O)NC2CCCC2)c1 (stereo unspecified) 0.13%
CCOC(=O)c1[nH]c(C)c(CCC(=O)Nc2cc(Cl)c(OC)cc2OC)c1C -27.3%
CCC(C)NC(=O)c1cn(CC)c2ccc(S(=O)(=O)N3CCc4ccccc4C3)cc2c1=O (stereo unspecified) -30.3%
Cc1ccc(CCNC(=O)c2ccc3c(c2)N(Cc2ccc(F)cc2)CCS3)cc1 -6.36%
Cc1cc(C)c(NC(=O)Cn2c(=O)n(CC(=O)NCCc3ccccc3)c(=O)c3ccccc32)c(C)c1 -5.19%
O=C(NC1CCCCCC1)c1ccc(CS(=O)c2cccc(Cl)c2)o1 (stereo unspecified) -16.4%
O=C(CSc1nc2ccccc2n1Cc1cccc(F)c1)N1CCN(c2ccc(F)cc2)CC1 -30.8%
O=C(NCc1ccccc1Cl)c1ccc2c(c1)N(Cc1ccccc1)CCS2 -13.7%
COc1ccc(NC(=O)c2cc3c(=O)n(Cc4cccnc4)ccc3nc2C)c(OC)c1 -5.8%
CN(C)CCc1c[nH]c2ccc(CS(=O)(=O)N3CCCC3)cc12
Cc1ccc2nc3c(cc(C(=O)NCc4ccco4)c(=N)n3C(C)C)c(=O)n2c1 7.28%
Cc1ccc(NC(=O)c2c(C)oc3ncn(CC(C)C)c(=O)c23)nc1 -18.8%
O=C(Nc1ccc(N2CCOCC2)c(C(=O)O)c1)c1ccc(Br)cc1 17.8%
CCc1ccc(OCc2ccccc2C(=O)Nc2ccc3nc(C)cc(N)c3c2)cc1 -66.1%
Cc1ccc(CNC(=O)Cn2ccn(-c3ccc(F)cc3)c(=O)c2=O)cc1 -6.56%
Cc1cccc(CN2C(=O)c3ccccc3S(=O)(=O)c3ccc(C(=O)NC4CCCCC4)cc32)c1 -13%
CCn1c(=O)c2cc(C(=O)NCCc3ccc(Cl)cc3)sc2c2ccccc21 -9.16%
